Results reported in PubChem BioAssay AID1345083 (National Center for Advancing Translational Sciences (NCATS), 2018).
Among all 94,000 compounds or so, about 6,200 (6.6%) were called active. Inconclusive means that the source gave no clear call. Such entries were picked first, then a sample of the others. Calls follow the shape of the dose curve; as a rule, active = well fitted inhibition curve with a large enough effect; inconclusive = small, poorly fitted or top-dose-only effect; inactive = flat fitted curve, though single readings scatter. Where the call is inconclusive, the potency comes from a doubtful curve fit.
Potency is read from the fitted curve at half-maximal effect; tags tell the direction and shape of the fitted curve.

Assay: Cytotoxic Profiling in HEK 293 Cell Line of Diverse Libraries Using Quantitative High-Throughput Screening; also: nearly all actives have a fitted effect of over 60% in size
Conditions: HEK 293 viability, ATP luminescence (CellTiter-Glo), 48-72 h; series mostly up to 115 µM
In short: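 Read-out: CellTiter-Glo ATP luminescence. Cells: HEK 293, 250 cells/well. Exposure: 48 or 72 hr, 37 degree Celsius.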
For `CCn1ccc(C(=O)N2CC(Oc3ccc(-c4nc(-c5ccccc5)no4)cc3)C2)n1`, the Potency was inconclusive: 12.6 µM [inhibitor, full curve, poor fit].
In the case of `CC(C)c1noc(CC2CCN(C(=O)c3ccccn3)CC2)n1`, the Potency is reported as inconclusive: 100 µM [inhibitor, single point].
With `COc1ccc(F)cc1-c1ccc(CN2CCC(NC(=O)c3ccc(Cl)cc3)C2)cc1` (stereo not drawn) the Potency was inconclusive: 22.4 µM [inhibitor, full curve, poor fit].
For `Cc1cccc(NC(=O)Cn2nc3n(c2=O)CCCC3)c1`, the Potency was “inactive”.
For `O=S(=O)(c1ccc(F)cc1)N1CCCC(Cc2noc(C3CC3)n2)C1` (stereo not drawn), the Potency was inconclusive: 56.2 µM [inhibitor, single point].
With `O=C(NCC(F)(F)F)C1CCCN(c2nccc(Nc3ccccc3F)n2)C1` (stereo not drawn) the Potency was inconclusive: 39.8 µM [inhibitor, partial curve, poor fit].
With `Cc1cc(CC(C)NC(=O)Cc2c(C)[nH]c3ccccc23)n[nH]1` (stereo not drawn) the Potency was “inactive”.
With `Cc1ccc(NC(=O)N2CC[C@@H]3C(=O)NCCCCCCN(Cc4ccncc4)[C@@H]3C2)cc1C` the Potency was inconclusive: 28.2 µM [inhibitor, full curve].
With `Cc1noc(C)c1-c1cc(-c2cccc3cc[nH]c23)cn2cncc12` the Potency was inconclusive: 112 µM [inhibitor, partial curve, poor fit].
With `CC[C@H]1CN(S(=O)(=O)c2c(C)noc2C)CC[C@H]1CC(=O)NCc1cccnc1` the Potency was “inactive”.
With `O=C(c1nc(-c2ccsc2)c2cnccn12)N1CCOCC1` the Potency was inconclusive: 89.1 µM [inhibitor, partial curve, poor fit].
For `CC(C)C(=O)N1Cc2ccccc2CC2(CCCN(CC3CCCCC3)C2)C1` (stereo not drawn), the Potency was inconclusive: 50.1 µM [inhibitor, partial curve, poor fit].
In the case of `O=C(CN1C(=O)NC2(CCS(=O)(=O)CC2)C1=O)Nc1ccc2c(c1)OCCO2`, the Potency is reported as “inactive”.
With `Cc1noc2c(NCCc3ccccn3)cc(-c3ccccc3)nc12` the Potency was inconclusive: 79.4 µM [inhibitor, partial curve].
In the case of `COc1ccc(-c2ccnc(N[C@H]3CO[C@H]4[C@@H]3OC[C@H]4OC(=O)Nc3ccc(C(C)=O)cc3)n2)cc1`, the Potency is reported as inconclusive: 5.62 µM [inhibitor, full curve, poor fit].
With `O=C(NCCn1ccn2nc(-c3ccc(F)cc3)cc2c1=O)c1n[nH]c2c1CCCC2` the Potency was inconclusive: 39.8 µM [inhibitor, partial curve].
With `Cc1ccc2c(C(=O)NCCc3cccs3)cc(NC(=O)C3CCC3)cc2n1` the Potency was inconclusive: 70.8 µM [inhibitor, single point].
For `CN1CCc2nc(N3CCN(C(=O)CCC4CCCC4)CC3)sc2C1`, the Potency was inconclusive: 39.8 µM [inhibitor, partial curve, poor fit].
With `CN(C)c1nc(N2CCC(O)(c3cccnc3)CC2)ncc1F` the Potency was inconclusive: 35.5 µM [inhibitor, partial curve, poor fit].
With `COc1nc2ccccc2cc1CN1CCN2C(=O)CN(C)C(=O)C2C1` (stereo not drawn) the Potency was inconclusive: 44.7 µM [inhibitor, partial curve].
For `O=C(c1ccc(CO)o1)N1CCc2c(nc(-c3ccncc3)[nH]c2=O)C1`, the Potency was “inactive”.
For `COc1ccc(N=C2S[C@H]3[C@H]([C@@H](O)[C@H](O)C[C@@H]3C(N)=O)N2Cc2ccc(F)cc2)cc1`, the Potency was “inactive”.
With `CN(C)C[C@H]1O[C@H](Cc2cc(-c3ccc(F)cc3)on2)CC[C@@H]1O` the Potency was “inactive”.
With `COC(=O)N1CCN(CCn2nc3n(c2=O)CCCC3)CC1` the Potency was “inactive”.
In the case of `O=C(OCc1ccccc1)N1C[C@@H](CO)[C@@H]2Oc3c(F)cccc3[C@@H]21`, the Potency is reported as inconclusive: 89.1 µM [inhibitor, single point].
With `COc1ccc(-c2ccc(C(=O)N3CCN([S+](=O)([O-])C(C)C)CC3)cc2)nn1` the Potency was inconclusive: 44.7 µM [inhibitor, partial curve, poor fit].
For `COCC(=O)N[C@@H]1CN(Cc2cc(F)c(F)c(F)c2)C[C@H]1CO`, the Potency was “inactive”.
With `CC(C)c1nnc(CN2CCOc3c(O)cc(-c4cccc(Cl)c4)cc3C2)o1` the Potency was inconclusive: 89.1 µM [inhibitor, partial curve, poor fit].
In the case of `COc1ccc(CNC(=O)Cn2cccc2-c2nc(-c3ccc4c(c3)OCO4)no2)cc1OC`, the Potency is reported as “inactive”.
In the case of `CCc1noc(-c2cn(C3CCN(C(=O)c4cc(F)ccc4F)CC3)nn2)n1`, the Potency is reported as inconclusive: 89.1 µM [inhibitor, single point].
With `Cc1ccc(C(=O)N(C)Cc2ccccc2C(F)(F)F)cc1` the Potency was inconclusive: 126 µM [inhibitor, single point].
In the case of `O=C(NCc1cc(F)cc(F)c1)c1nnn2c1COC(c1ccc(Br)cc1)C2` (stereo not drawn), the Potency is reported as inconclusive: 44.7 µM [inhibitor, partial curve, poor fit].
For `COc1ccc(CN2CCN3C(=O)N(Cc4ccc(OC)cc4)C[C@H]3C2)cc1`, the Potency was inconclusive: 35.5 µM [inhibitor, partial curve, poor fit].
With `Cc1cccc(-n2cc(CN3C[C@@H](NS(C)(=O)=O)[C@H](C(C)C)C3)cn2)c1` the Potency was inconclusive: 56.2 µM [inhibitor, partial curve, poor fit].
In the case of `CCN1c2cc(C(=O)Nc3cccc(Cl)c3)ccc2C(=O)N2CCCCCC21` (stereo not drawn), the Potency is reported as inconclusive: 44.7 µM [inhibitor, partial curve, poor fit].
With `O=C(NCCc1ccc(Cl)cc1)c1ccc2nnc(-c3ccoc3)n2c1` the Potency was inconclusive: 15.8 µM [inhibitor, partial curve, poor fit].
With `COc1ccc(-c2cc(C(=O)NC3CC3)c3c(C4CCCN4)nn(C)c3n2)cc1` (stereo not drawn) the Potency was inconclusive: 79.4 µM [inhibitor, partial curve, poor fit].
With `CCOc1ccc(C(=O)NC2CCCN(c3cc(-c4ccc(OC)cc4)[nH]n3)C2)cc1OCC` (stereo not drawn) the Potency was inconclusive: 44.7 µM [inhibitor, partial curve, poor fit].
With `O=C(NCCc1ccccc1)C1CN(C2CCCC2)C(=O)N1` (stereo not drawn) the Potency was “inactive”.
For `O=C(CCC1CCN(c2cc(NC3CC3)ncn2)CC1)NCc1ccc(F)cc1F`, the Potency was inconclusive: 56.2 µM [inhibitor, partial curve, poor fit].
For `COc1ccccc1N1CCN([C@@H]2[C@H](O)[C@H](CO)O[C@@H]2CNC(=O)Nc2ccccc2)CC1`, the Potency was “inactive”.
With `O=C1CCCN1Cc1nc(-c2ccc(F)c(Cl)c2)no1` the Potency was inconclusive: 89.1 µM [inhibitor, single point].
With `OCc1ccc(CN2C[C@H](O)C[C@H]2c2nc(-c3cccnc3)no2)o1` the Potency was inconclusive: 126 µM [inhibitor, single point].
With `COc1cccc(-c2c(C(=O)NC3CCCCC3)nc3sccn23)c1` the Potency was inconclusive: 50.1 µM [inhibitor, partial curve, poor fit].
With `Cc1cc(=O)n(CC(=O)Nc2ccc(Br)cc2)c(N2CCc3ccccc3C2)n1` the Potency was active: 89.1 µM.
With `O=C(NCc1cccc(F)c1)c1cc(-c2cccc(C(F)(F)F)c2)c2nncn2n1` the Potency was “inactive”.
For `Cc1ccccc1N1CCN(C(=O)[C@@]23CCCC[C@H]2N(CCC(C)C)C(=O)CC3)CC1`, the Potency was inconclusive: 50.1 µM [inhibitor, partial curve, poor fit].
In the case of `CCOc1ccc(C(=O)N2CCC3(CC2)NC(=O)N(Cc2ccc(F)cc2)C3=O)cc1`, the Potency is reported as inconclusive: 70.8 µM [inhibitor, single point].
With `Cn1cccc1CN1CCCC2(C1)C(=NC1CCCC1)NC(=O)N2c1cc(F)cc(F)c1` (stereo not drawn) the Potency was inconclusive: 79.4 µM [inhibitor, partial curve, poor fit].
For `CCCN1CCc2nc(C(=O)Nc3nc(C)cs3)oc2CC1`, the Potency was inconclusive: 126 µM [inhibitor, single point].
For `CC(CCc1ccccc1)NC(=O)CN1C(=O)C(c2ccccc2)=NC1(C)C` (stereo not drawn), the Potency was inconclusive: 39.8 µM [inhibitor, partial curve].
For `O=C(CCc1ccccc1)N1C[C@@H](CO)[C@H](c2nc(C3CC3)no2)C1`, the Potency was “inactive”.
With `Cc1cccc(-c2ocnc2C(=O)N2C[C@@H](Oc3ccccc3)C[C@H]2C(=O)N2CCCC2)c1` the Potency was inconclusive: 56.2 µM [inhibitor, partial curve, poor fit].
For `CC(=O)Nc1cccc(-c2nc(-c3c(C)noc3C)cc3c2cc(-c2ccccc2)n3C)c1`, the Potency was inconclusive: 11.2 µM [inhibitor, full curve].
In the case of `Cc1nn2c(c1-c1ccccc1C(N)=O)N(CCCc1ccccc1)CCC2`, the Potency is reported as active: 11.2 µM.
In the case of `COc1ccc(CNC(=O)C[C@@H]2C[C@@H](C(C)C)[C@H](CNC(=O)c3ccc(C#N)cc3)C=C2C)cc1`, the Potency is reported as inconclusive: 39.8 µM [inhibitor, partial curve].
With `O=C([C@H]1C[C@H](Oc2ccccc2)CN1C(=O)COc1ccc(F)cc1)N1CCOCC1` the Potency was “inactive”.
In the case of `COc1ccc(Nc2ccc3ncn(-c4ccccc4)c(=O)c3n2)cn1`, the Potency is reported as active: 100 µM.
In the case of `COc1cccc(C(=O)N2CCC3(CC2)NC(=O)N(c2ccc(F)cc2)N3)c1OC`, the Potency is reported as inconclusive: 20 µM [inhibitor, full curve].
For `O=C(CN1CC2CC(C1)[C@H]1CCCC(=O)N1C2)N1CCC(Cc2ccccc2)CC1` (stereo partly drawn), the Potency was “inactive”.
With `CNC(=O)c1nc2cccnc2n(CC(C)C)c1=O` the Potency was “inactive”.
With `O=C(NCc1ccccc1)N1CC(Oc2cccc(-c3nc(-c4ccccc4)no3)c2)C1` the Potency was active: 17.8 µM.
In the case of `CCc1cc(=O)n(CC(=O)Nc2ccccc2)c(-c2cccc(F)c2)n1`, the Potency is reported as inconclusive: 31.6 µM [inhibitor, full curve].
